# Measured values published in PubChem BioAssay AID488969 (Vanderbilt High Throughput Screening Facility, 2010).
# In all, about 110,000 compounds were measured (“z-score”: median about -0.1, highest 2% from about 2 on). The list shows a part of the results. The source made the active and inactive calls.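 Rule for the calls: active = z-score in the third read window above 3 or below -3; inactive = the rest.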
# Molecular target: Metabotropic glutamate receptor 8 (Rattus norvegicus) (UniProt P70579)
# Assay: mGluR8 Gi/Go-coupled signaling modulation – cell-based, rat, thallium flux, HTS, primary screen (AID 488969)
# Conditions: HEK293 rat mGluR8, GIRK (G protein-gated inwardly rectifying potassium channel) thallium flux, FluoZin2; at 10 µM; stronger effect = higher value; submaximal glutamate (EC20) added with thallium
# Sequence of UniProt P70579 (P70579 whole entry, looked up): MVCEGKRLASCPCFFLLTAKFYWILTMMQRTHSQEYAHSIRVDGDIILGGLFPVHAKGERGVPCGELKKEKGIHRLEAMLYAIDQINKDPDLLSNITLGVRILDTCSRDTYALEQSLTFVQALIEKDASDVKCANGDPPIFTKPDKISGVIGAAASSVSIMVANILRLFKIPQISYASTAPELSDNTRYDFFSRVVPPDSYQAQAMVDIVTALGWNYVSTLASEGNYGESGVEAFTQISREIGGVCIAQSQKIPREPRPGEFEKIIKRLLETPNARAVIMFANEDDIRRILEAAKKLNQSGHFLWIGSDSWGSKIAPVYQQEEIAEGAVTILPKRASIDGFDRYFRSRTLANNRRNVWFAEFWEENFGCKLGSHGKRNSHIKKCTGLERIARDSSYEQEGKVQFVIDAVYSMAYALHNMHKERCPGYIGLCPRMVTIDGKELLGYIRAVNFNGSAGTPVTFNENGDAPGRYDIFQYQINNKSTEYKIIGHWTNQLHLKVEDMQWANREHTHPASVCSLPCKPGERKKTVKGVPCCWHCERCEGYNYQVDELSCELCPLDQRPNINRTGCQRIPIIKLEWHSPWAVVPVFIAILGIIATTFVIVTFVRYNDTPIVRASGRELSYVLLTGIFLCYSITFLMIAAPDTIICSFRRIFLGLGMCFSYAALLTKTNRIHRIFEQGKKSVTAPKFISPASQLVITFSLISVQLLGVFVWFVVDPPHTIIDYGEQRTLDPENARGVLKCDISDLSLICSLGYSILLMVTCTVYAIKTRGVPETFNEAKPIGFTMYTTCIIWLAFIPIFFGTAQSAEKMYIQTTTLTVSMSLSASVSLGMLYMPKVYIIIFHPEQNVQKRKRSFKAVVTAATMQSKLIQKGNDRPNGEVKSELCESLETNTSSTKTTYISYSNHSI
row,Compound,z-score
1,Cc1ccc(C(=O)CCC(=O)Nc2cccnc2)cc1C,-0.25
2,Cc1cccc(OCCC(=O)NCC(=O)Nc2c(C)cccc2C)c1,-0.104
3,COc1ccc(C(=O)c2sc3nc(-c4ccccc4)ccc3c2N)cc1,-0.123
4,COCCN(C(=O)Nc1ccc(OC)cc1OC)C1CCN(C(C)=O)CC1,-0.12
5,O=C(CC(c1ccccc1)c1cc(Cl)ccc1O)N1CCOCC1 (stereo unspecified),-0.151
6,Cc1nc2ncnn2c(C)c1CCC(=O)NC(C)c1ccc2c(c1)OCCO2 (stereo unspecified),-0.206
7,Cc1cc(NS(=O)(=O)c2ccc(NC(=O)CSc3nnc(-c4ccco4)n3Cc3ccco3)cc2)nc(C)n1,-0.115
8,Cn1nc(Oc2nc(N3CCOCC3)nc(N3CCOCC3)n2)ccc1=O,0.165
9,CCOC(=O)c1ccccc1NS(=O)(=O)c1ccc(OCC)cc1,-0.255
10,CCOc1ccc(S(=O)(=O)N2CCCCCC2)cc1,-0.437
11,CCCCC(O)(CCCC)C(=O)NN(C(=O)OCC)c1ccccc1,-0.429
12,COCCOc1ccc(C(F)(F)F)cc1NC(=O)c1ccc(C(F)(F)F)cc1,0.133
13,COc1ccc2c(Cl)c(C(=O)N/N=C/c3ccc4c(c3)OCO4)sc2c1,0.0579
14,Cc1cc(/C=C(\C#N)C(=O)Nc2ccc(F)cc2)c(C)n1-c1ccc(N2CCOCC2)c([N+](=O)[O-])c1,0.0895
15,COc1ccc(C(=O)COC(=O)CNS(=O)(=O)c2ccc(C)cc2)cc1,-0.781
16,CCN(CC)S(=O)(=O)c1ccc(NC(=O)CSc2cccc[n+]2[O-])cc1,-0.324
17,Cc1cc(NC(=O)CSc2nc(C(C)C)nc3c2c(=O)n(C)c(=O)n3C)no1,0.195
18,Cc1ccc(S(=O)(=O)N(C)CC(=O)Nc2cccc3c2CCCC3)cc1,-0.226
19,O=C(CSc1nnc(CNC(=O)c2cccs2)o1)NC1CCCCC1,-0.338
20,CCCCNC(=O)OC(C)CNC(=O)OC (stereo unspecified),-0.213
21,O=C(NCCN1CCCC1)C1CC(=O)N(C2CCCCC2)C1 (stereo unspecified),-1.26
22,COc1ccc(C)cc1S(=O)(=O)Nc1ccccc1,-0.475
23,N#Cc1c(Cl)c(Cl)c2nnc(-c3ccc(Br)cc3)n2c1Cl,-0.505

row,Compound,z-score
1,Cc1c(/C=N/n2cnnc2)c2ccccc2n1C,-1.56
2,CCN1C(=O)/C(=C/N(C)c2ccccc2)OC1=S,0.307
3,Cc1ccc(S(=O)(=O)Nc2nc3ccccc3nc2N2CCN(c3ccccc3F)CC2)cc1,-0.256
4,Cc1ccc(-c2c(C)n([O-])c3c([n+]2=O)CCCC3)o1,0.171
5,O=C(CCS(=O)(=O)c1cccc2nsnc12)NCc1ccccc1,-0.0477
6,O=c1cc(-c2ccc(Cl)cc2)[nH][nH]1,0.375
7,O=C(CCCC(=O)OCC(Cl)=C(Cl)Cl)Nc1ccc(F)cc1,0.53
8,COc1cccc(NC(=O)CSc2nnc(-c3cc(-c4ccccn4)nc4ccccc34)o2)c1,0.909
9,COC(=O)Cc1csc(Nc2ccccc2)n1,-0.467
10,COc1ccc(NS(=O)(=O)c2ccc(N3C(=O)CCC3=O)cc2)cc1,0.339
11,Cc1ccc(SCCC(=O)Nc2c(C)n(C)n(-c3ccccc3)c2=O)cc1,0.234
12,O=C(CSc1nnc(-c2cccs2)o1)Nc1cccc(S(=O)(=O)N2CCCCC2)c1,-0.19
13,CC(/C=C1\SC(=O)N(CC(=O)Nc2cccc(O)c2)C1=O)=C\c1ccccc1,-0.157
14,Fc1cccc(/C=N/NC(=S)Nc2ccccc2Cl)c1,active: 11.2
15,Cc1ccc(Oc2ncc(-c3ccc(Cl)cc3)cn2)cc1,-0.0734
16,Cn1c(N/N=C/c2cccs2)cc(=O)n(C)c1=O,0.96
17,Cc1cccc(NC(=S)N(CCN(C)C)Cc2cc3cccc(C)c3[nH]c2=O)c1,0.0447
18,Cc1ccc(-c2csc3ncnc(N4CCN(C(=O)c5ccccc5)CC4)c23)cc1,active: -3.18
19,Cc1ccc(C(=O)Nc2ccc(CC(=O)O)cc2)o1,-0.0825
20,CC(=O)NCCCc1c[nH]c2ccc(Cl)cc12,0.497
21,Cc1ccc(S(=O)(=O)Oc2ccccc2/C=N/NC(=O)c2c(Cl)cnn2C)cc1,-0.314
22,CC(C)Cn1c(C(C)C)nc([N+](=O)[O-])c1S(=O)(=O)c1ccc(F)cc1,-0.276
23,COc1ccc(C(=O)NC(=S)Nc2cccc(NC(=O)c3ccco3)c2)cc1[N+](=O)[O-],0.424

row,Compound,z-score
1,Cc1cc(C)nc(Nc2nc3ccccc3[nH]2)n1,-0.0598
2,Cc1cc(=O)oc2cc(Oc3ncccn3)ccc12,0.707
3,O=[N+]([O-])c1ccc(S(=O)(=O)CC2CSc3nc4ccccc4n32)cc1 (stereo unspecified),-0.185
4,CN(c1ccc([N+](=O)[O-])cc1/C=N/NC(=O)COc1ccccc1)C1CCCCC1,-0.398
5,Cn1c(=O)c2c([nH]c(=O)n2C)n(C)c1=O,-0.146
6,Cn1ccnc1SCC(=O)Nc1cccc2ccccc12,0.56
7,CCOC(=O)Cc1csc(NC(=O)CSc2nc3sc(C(=O)O)c(C)c3c(=O)[nH]2)n1,0.0555
8,O=C(Cc1ncn[nH]1)NCCc1ccccc1,-0.0683
9,Cc1ccc(C2NS(=O)(=O)N=C2N)cc1 (stereo unspecified),0.0154
10,O=C(CSc1ncn(-c2ccccc2)n1)c1cccs1,-0.233
11,Cn1c(=O)n(C)c2cc(/C=N/NC(=O)c3cccc(Br)c3)ccc21,-0.0375
12,CC(=O)c1cc(-c2ccccc2)n(CCC(=O)NC2CCCCC2)c1C,-0.0404
13,COc1ccc(CCNC(=O)CSc2nnc(CNC(=O)c3ccco3)o2)cc1OC,0.382
14,O=C(NC1c2ccccc2-c2ccccc21)c1ccco1,-0.228
15,CC(C)C(=O)N1CCN(C2=NS(=O)(=O)c3ccccc32)CC1,-0.466
16,O=C(Nc1nc2ccccc2s1)c1ccc(Cl)s1,1.22
17,Nc1c(S(=O)(=O)c2cc(Cl)ccc2Cl)c2nc3ccccc3nc2n1CCN1CCOCC1,0.528
18,CN(C)CCCNC(=O)c1ccccn1,-0.565
19,CCOC(=O)C(=O)Nc1nnc(SCc2ccc(F)cc2)s1,-0.179
20,N#Cc1c(NC(=O)CSc2nc3c(c(C(F)(F)F)n2)CCc2ccccc2-3)sc2c1CCCC2,-0.12
21,COc1ccc2nc(NC(=O)C3COc4ccccc4O3)sc2c1 (stereo unspecified),-0.23
22,Cc1ccc(S(=O)(=O)N/N=C\c2ccc(Cl)c([N+](=O)[O-])c2)cc1,-0.0249
23,CCC(Oc1ccccc1)C(=O)Nc1ccc(S(=O)(=O)N2CCOCC2)cc1 (stereo unspecified),-0.348

row,Compound,z-score
1,Cc1nnc(NC(=O)C(C)Oc2ccc3c(C)cc(=O)oc3c2)s1 (stereo unspecified),0.0718
2,CCN(CC)S(=O)(=O)c1ccc(Oc2cccc(C(C)=O)c2)nc1,-0.503
3,COc1ccc(-n2c(=O)[nH]cc(C(=O)N3CCCc4ccccc43)c2=O)cc1,0.0339
4,Cc1ccc(S(=O)(=O)NNC(=O)Nc2cccc3ccccc23)cc1,-0.107
5,c1ccc(CN2CCC3(CC2)Nc2ccccc2CO3)cc1,0.141
6,C=CCNc1nc2c(c(=O)n(C)c(=O)n2C)n1CCCCCC,-1.2
7,Nc1nnc(SCCOc2ccccc2)s1,0.125
8,CCOc1ccc2nc(NC(=O)C3CCN(S(=O)(=O)c4cnc[nH]4)CC3)sc2c1,-0.034
9,COc1ccc(C2Nc3ccccc3C(=O)N2Cc2ccco2)cc1COc1ccc([N+](=O)[O-])cc1 (stereo unspecified),0.105
10,Cc1nn(CC(O)Cn2cnc3c2c(=O)n(C)c(=O)n3C)c(C)c1Br (stereo unspecified),0.865
11,CCCC(=O)NNC(=O)c1ccoc1C,0.0372
12,Cc1nn(Cc2ccccc2)c(Cl)c1C(=O)NCCc1ccc(Cl)cc1,-0.257
13,CCC(C)(C)NC(=O)C(c1ccc(C)o1)N(Cc1cccs1)C(=O)Cn1nnc2ccccc21 (stereo unspecified),-0.144
14,O=C(/C=C\Nc1ccc(Br)cc1)c1cccnc1,-0.276
15,O=C(Cn1nc(Cc2cccnc2)c2ccccc2c1=O)NCC1COc2ccccc2O1 (stereo unspecified),0.122
16,Cc1c(C(=O)N2CCCCC2)sc(NC(=O)c2ccco2)c1C#N,0.582
17,NC(=O)CCC(NS(=O)(=O)c1ccc(Cl)cc1)C(=O)NCc1ccccc1Cl (stereo unspecified),-0.219
18,Clc1ccsc1-c1ccc2ccccc2n1,-0.26
19,O=C(CSc1nc2c(c(=O)n1-c1ccc(F)cc1)SCC2)N1CCCC1,-1.82
20,c1ccc(CN2CCN(c3ncccn3)CC2)nc1,1.19
21,Cc1[nH]c2ccccc2c1C(c1ccncc1)N1CCN(c2ccccc2F)CC1 (stereo unspecified),0.236
22,O=C(N/N=C/c1cccnc1)c1ccc([N+](=O)[O-])cc1,-0.176
23,COc1ccc(CCNc2ccncn2)cc1OC,0.0263

row,Compound,z-score
1,COc1ccc(NC(=O)CCCn2c(=O)c3sccc3n(Cc3ccccc3C)c2=O)cc1,-0.618
2,CN1CCN(S(=O)(=O)c2cccc(S(=O)(=O)c3ccc(Cl)c(Cl)c3)c2)CC1,1.26
3,NC(=O)c1ncc(C(F)(F)F)cc1Oc1cccc(C(F)(F)F)c1,-0.0312
4,O=C(N/N=C/c1ccco1)c1cc(-c2ccc3ccccc3c2)n[nH]1,0.126
5,CCOC(=O)c1ccc(-c2ccc(/C=C(\C#N)C(=O)NCc3cccs3)o2)cc1,-0.225
6,CCCC(=O)Nc1nc2ccc3nc(C)sc3c2s1,-0.507
7,Cc1cc(N2C(=O)CCC2=O)ccc1NC(=O)c1cccs1,0.251
8,Cc1ccc(S(=O)(=O)c2nc(C)c3c(n2)CCC3)cc1,-0.0512
9,CCCCn1nc2cc(C(=O)NCc3ccc(OC)cc3)ccc2c1OCC,-0.348
10,Cc1nc(NC(C)C)c2oc3ccccc3c2n1,-1.54
11,O=C(Nc1ccc(N2CCOCC2)cc1)C1CCCN(S(=O)(=O)c2ccccc2)C1 (stereo unspecified),0.446
12,O=c1n(-c2ccccc2)c(=O)n2n1CCCC2,-0.0721
13,COc1cccc(NC(=O)N(CCCN2CCOCC2)C(C)c2cc3cccc(OC)c3o2)c1 (stereo unspecified),-1.33
14,CCCCC(=O)Oc1ccccc1C1SCc2cc(C)c(C)cc2CS1,-0.268
15,Cc1cc(C(F)(F)F)n2nc(-c3cnn(C)c3C(F)(F)F)c(Cl)c2n1,-0.158
16,O=C(Nc1ccc2c(c1)OCCO2)c1cc2sccc2n1Cc1ccc(F)cc1,-0.281
17,CC(C)Nc1nc(SCC(N)=O)nc(N2CCOCC2)n1,0.411
18,CC(=O)Nc1ccc(C(=O)OC2CCCCC2=O)cc1 (stereo unspecified),0.0145
19,Nc1nc2ccccc2n1/N=C/c1cccnc1,-0.129
